PubChem BioAssay AID1347073 (National Center for Advancing Translational Sciences (NCATS), 2019)
In all, about 45,000 compounds went through this assay and about 200 (0.44%) were called active. Inconclusive results (about 7%) are left out. Calls come from the whole dose curve; as a rule, active = well fitted activation curve with a large enough effect; inconclusive = small, poorly fitted or top-dose-only effect; inactive = no such curve, though single readings can be large or run the other way. The list shows a part of the results.

Experiment: qHTS of TDP-43 Inhibitors: NCGC Sytravon Library Screen; note: 0% is about no effect; nearly all actives have a fitted effect of over 55% in size
Details: yeast TDP-43 toxicity rescue, BacTiter-Glo growth, 24 h; series mostly up to 46.1 µM; growth rescue (activation): at the top concentration
In short: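 TDP-43-expressing yeast, pregrown in raffinose, seeded at OD600 0.02 in galactose medium with compound for 24 hr at 30 deg C. Growth read by BacTiter-Glo luminescence, so rescue of toxicity appears as activation.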

SMILES	growth rescue (activation)
Cc1ccc2nc(C)cc(Nc3ccc([N+](=O)[O-])cc3)c2c1	inactive: -15%
COc1ccc(C2N(C(C)=O)CCN2S(=O)(=O)c2ccc(C)cc2)cc1 (stereo not given)	inactive: -4.09%
COC(=O)c1cccc(Nc2nc(-c3cccnc3)nc3ccccc23)c1	inactive: 4.43%
COC(=O)c1cc2oc3ccccc3c2n1Cc1nc(-c2ccccc2C)oc1C	inactive: 0.0862%
Cc1ccc(-c2csc3nc(C)n(-n4cccc4)c(=O)c23)o1	inactive: -3.57%
COc1ccc(/C=N/OCC(=O)NCc2cccs2)c(OC)c1	inactive: -1.07%
CCc1ccc(NC(=O)C(C)OC(=O)CC(NC(C)=O)c2ccccc2)cc1 (stereo not given)	inactive: -11.8%
COC(=O)c1[nH]c2ccccc2c1NC(=O)CN1CCN(C(=O)c2ccco2)CC1	inactive: -2.55%
O=[N+]([O-])c1cnn(-c2nc(-c3ccccc3)cc(C(F)(F)F)n2)c1	inactive: -8.04%
CN(Cc1nccn1C)C(=O)CC1C(=O)NCCN1Cc1ccc(F)cc1Cl (stereo not given)	inactive: 13.7%
COc1cc(OC)cc(C(=O)OCC(=O)N2CCCC2)c1	inactive: -15.9%
CCOC(=O)C1(C)CCCCCN1C(=O)c1ccc(SC(F)(F)F)cc1 (stereo not given)	inactive: -9.91%
O=C(CN1CCC(NC(=O)C2CC2)CC1)Nc1cccc(F)c1	inactive: 11.9%
O=C(Nc1cccnc1Cl)c1cc(-c2cccc(Cl)c2)on1	inactive: -15%
O=C(O)c1ccc(/C=N/N2CCN(Cc3ccc(Cl)cc3)CC2)cc1	inactive: 10.1%
CCc1nc2ccccc2c(C(=O)Oc2ccc(C(=O)OC)cc2)c1C	inactive: -1.36%
CCN(C(=O)CN1CCOCC1)c1c(N)n(Cc2ccccc2)c(=O)[nH]c1=O	inactive: -0.12%
C=CCNS(=O)(=O)c1ccc(N2C(=O)c3ccccc3C2=O)cc1	inactive: 1.84%
O=C(CNS(=O)(=O)c1ccccc1)OCC(=O)c1ccc(Br)cc1	inactive: 0.682%
c1ccc(Oc2nc(-c3ccccn3)nc3ccccc23)cc1	inactive: 6.45%
Cc1nc2cc(NC(=O)C3COc4ccccc4O3)ccc2s1 (stereo not given)	inactive: 24.8%
CCN(CC(=O)NCc1ccc(F)cc1)C(=O)/C=C/c1ccc(OC)cc1	inactive: 2.63%
CN(C)CCNC(=O)/C(=C/c1ccc(-c2ccc(Cl)cc2Cl)o1)NC(=O)c1ccccc1	inactive: 1.39%
CC(=NNC(=O)c1ccc2nc[nH]c2c1)c1ccc(Br)cc1	inactive: 16%
CCOC(=O)C(C)NC(=O)CCc1nnc2ccc(N3CCCCC3)nn12 (stereo not given)	inactive: -2.41%
Oc1c(CN2CCCCC2)cc(COCc2ccccc2)c2cccnc12	inactive: 19.4%
O=C(NCCCNC(=O)c1ccc(Cl)cc1Cl)c1ccco1	inactive: 10.9%
CCOC(=O)C1(Cc2ccc(Cl)cc2)CCN(Cc2nccn2CC)CC1	inactive: -2.34%
CCc1ccc(NC(=O)C(=O)NNC(=O)c2cccc(OC)c2)cc1	inactive: 12.6%
CSCC[C@H](NC(=O)C(C)Oc1ccc(Cl)cc1)c1nc2ccccc2[nH]1 (stereo not given in full)	inactive: 1.23%
